± gives the standard error. This sample is rich in variants without activity.
B1: glmS ribozyme (parent)
chain: AUAAAAGCGCCAGAACUACAGAAAUGUAGUUGACGAGGAGGAGGUUUAUCGAAUUUUCGGCGGAUGCCUCCAAA

Key:
Conditions in all cases: with glucosamine-6-phosphate
glucosamine-6-phosphate [1] = variants of: B1; test: self-cleavage kobs at 40 uM GlcN6P; higher = faster cleavage; RNA array
How it was run: (§1)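 A hybridised Cy3 probe tracked barcoded ribozyme variants, transcribed in situ by E. coli RNA polymerase on sequenced MiSeq chips, at 37 °C. The variants received 40 μM to 10 mM glucosamine-6-phosphate in HEPES/KCl/Mg(OAc)2 buffer. kobs came from decay fits and kcat and KM from weighted Michaelis–Menten fits.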

glucosamine-6-phosphate [2] = variants of: B1; test: self-cleavage kobs at 160 uM GlcN6P; higher = faster cleavage; RNA array
How it was run: as §1

glucosamine-6-phosphate [3] = variants of: B1; test: self-cleavage kobs at 2500 uM GlcN6P; higher = faster cleavage; RNA array
How it was run: as §1

glucosamine-6-phosphate [4] = variants of: B1; test: self-cleavage kobs at 10000 uM GlcN6P; higher = faster cleavage; RNA array
How it was run: as §1

glucosamine-6-phosphate [5] = variants of: B1; test: self-cleavage kobs at 640 uM GlcN6P; higher = faster cleavage; RNA array
How it was run: as §1

Variant	self-cleavage kobs at 40 uM GlcN6P (glucosamine-6-phosphate [1]) [s⁻¹]	self-cleavage kobs at 160 uM GlcN6P (glucosamine-6-phosphate [2]) [s⁻¹]	self-cleavage kobs at 2500 uM GlcN6P (glucosamine-6-phosphate [3]) [s⁻¹]	self-cleavage kobs at 10000 uM GlcN6P (glucosamine-6-phosphate [4]) [s⁻¹]	self-cleavage kobs at 640 uM GlcN6P (glucosamine-6-phosphate [5]) [s⁻¹]
G7U U31C G38C G51A C70U	< 1e-05				
G7A C10A	< 1e-05	< 1e-05	< 1e-05	< 1e-05	
G7C C8U C34A	< 1e-05				
A6U A12C U45A A52C	< 1e-05				
G7A C10G A64U U65C	< 1e-05		< 1e-05		
G7U U46G A52U G59U	< 1e-05		< 1e-05		
G7U G66U	< 1e-05		< 1e-05	< 1e-05	< 1e-05
A6U G7U G44A U45G A53U G60A	< 1e-05		< 1e-05		< 1e-05
G7A A48C	< 1e-05				
G7U A12U	< 1e-05	< 1e-05	< 1e-05	< 1e-05	< 1e-05
G7A G38U C58A	< 1e-05			< 1e-05	
G7C U69G	< 1e-05		< 1e-05		
G7U G51A	< 1e-05	< 1e-05	< 1e-05	< 1e-05	
C8A A14C	< 1e-05	< 1e-05	< 1e-05	< 1e-05	< 1e-05
G7U U30C	< 1e-05		< 1e-05	< 1e-05	
G7U G35C U55G A64C	< 1e-05				
G7C C11U C61A C70G	< 1e-05		< 1e-05		
A6U G9A	< 1e-05	< 1e-05	< 1e-05		< 1e-05
A6U G9U G59C	< 1e-05				
G7U U46C	< 1e-05	< 1e-05	< 1e-05		< 1e-05
A6U G40A	< 1e-05	< 1e-05			
A6U G40C	< 1e-05				
A6U C16G U65G	< 1e-05	< 1e-05	< 1e-05		
A6U G51U	< 1e-05	< 1e-05			

Variant	self-cleavage kobs at 40 uM GlcN6P (glucosamine-6-phosphate [1]) [s⁻¹]	self-cleavage kobs at 160 uM GlcN6P (glucosamine-6-phosphate [2]) [s⁻¹]	self-cleavage kobs at 2500 uM GlcN6P (glucosamine-6-phosphate [3]) [s⁻¹]	self-cleavage kobs at 10000 uM GlcN6P (glucosamine-6-phosphate [4]) [s⁻¹]	self-cleavage kobs at 640 uM GlcN6P (glucosamine-6-phosphate [5]) [s⁻¹]
G7U C16U G38C	< 1e-05	< 1e-05	< 1e-05		< 1e-05
A6U C11U G32U	< 1e-05			< 1e-05	
G7A G44U U56C	< 1e-05	< 1e-05		< 1e-05	
G7A A15U G29A G35U	< 1e-05		< 1e-05	< 1e-05	
A6U G43U	< 1e-05	< 1e-05			< 1e-05
G7C G43A U69C	< 1e-05			< 1e-05	
G7A U31G	< 1e-05	< 1e-05			
G7U A53U	< 1e-05	< 1e-05	< 1e-05	< 1e-05	< 1e-05
G7U U49A A52C G60C C61U	< 1e-05		< 1e-05	< 1e-05	< 1e-05
G7C U31C U46A U54G	< 1e-05			< 1e-05	
C8A A14G U57C	< 1e-05		< 1e-05		< 1e-05
G7U G44C	< 1e-05	< 1e-05	< 1e-05	< 1e-05	< 1e-05
G7U G44A	< 1e-05		< 1e-05	< 1e-05	< 1e-05
A6U G32U G40U	< 1e-05		< 1e-05		< 1e-05
G7U C10G	< 1e-05		< 1e-05	< 1e-05	< 1e-05
G7A G9A	< 1e-05	< 1e-05	< 1e-05		< 1e-05
G7C A14C	< 1e-05		< 1e-05	< 1e-05	< 1e-05
G7A G63U	< 1e-05			< 1e-05	
A6U G38U C71A	< 1e-05				
G7A A12C G13U C58U C71U	< 1e-05				
G7C C70U	< 1e-05	< 1e-05			< 1e-05
G7C G37C	< 1e-05		< 1e-05	< 1e-05	
G7A U30A G40C	< 1e-05				
G7U U57A	< 1e-05	< 1e-05		< 1e-05	< 1e-05

Variant	self-cleavage kobs at 40 uM GlcN6P (glucosamine-6-phosphate [1]) [s⁻¹]	self-cleavage kobs at 160 uM GlcN6P (glucosamine-6-phosphate [2]) [s⁻¹]	self-cleavage kobs at 2500 uM GlcN6P (glucosamine-6-phosphate [3]) [s⁻¹]	self-cleavage kobs at 10000 uM GlcN6P (glucosamine-6-phosphate [4]) [s⁻¹]	self-cleavage kobs at 640 uM GlcN6P (glucosamine-6-phosphate [5]) [s⁻¹]
G7U U57C	< 1e-05	< 1e-05		< 1e-05	< 1e-05
G7C A15G	< 1e-05				
G7A U49G U55G	< 1e-05		< 1e-05		
A6U G41U U47C	< 1e-05			< 1e-05	
G7A A52G	< 1e-05			< 1e-05	< 1e-05
A6U C16U U47A G63U	< 1e-05			< 1e-05	
A6U A39C G43A C67U C68U	< 1e-05				
G7U C50G	0.000281 ± 8.4e-05	0.000551 ± 0.00024	0.0008 ± 0.00024		
G7U C50U	< 1e-05			< 1e-05	
A6U G7A A33U	< 1e-05			< 1e-05	
C8A A14U A15U G41C	< 1e-05				
G7C G41U	< 1e-05	< 1e-05	< 1e-05	< 1e-05	
A6U G59C G60U	< 1e-05			< 1e-05	< 1e-05
G7C G35C	< 1e-05	< 1e-05	< 1e-05	< 1e-05	< 1e-05
G7C G35A	< 1e-05		< 1e-05	< 1e-05	< 1e-05
C8A	< 1e-05	< 1e-05	< 1e-05	< 1e-05	< 1e-05
A6U U30G	< 1e-05				
A6U G29A U30C	< 1e-05			< 1e-05	
A6U G44U	< 1e-05	< 1e-05	< 1e-05	< 1e-05	< 1e-05
G7U C16A	< 1e-05		< 1e-05	< 1e-05	
G7U C16G	< 1e-05			< 1e-05	< 1e-05
G7A C11A U47G	< 1e-05			< 1e-05	
G7C C10U A15U U49C	< 1e-05			< 1e-05	
G7A C34G	< 1e-05		< 1e-05	< 1e-05	

Variant	self-cleavage kobs at 40 uM GlcN6P (glucosamine-6-phosphate [1]) [s⁻¹]	self-cleavage kobs at 160 uM GlcN6P (glucosamine-6-phosphate [2]) [s⁻¹]	self-cleavage kobs at 2500 uM GlcN6P (glucosamine-6-phosphate [3]) [s⁻¹]	self-cleavage kobs at 10000 uM GlcN6P (glucosamine-6-phosphate [4]) [s⁻¹]	self-cleavage kobs at 640 uM GlcN6P (glucosamine-6-phosphate [5]) [s⁻¹]
G7C U30C	< 1e-05	< 1e-05	< 1e-05	< 1e-05	< 1e-05
A6U G37C C70G	< 1e-05				
G7U G29A	< 1e-05	< 1e-05	< 1e-05	< 1e-05	< 1e-05
G7U G41A	< 1e-05	< 1e-05	< 1e-05	< 1e-05	< 1e-05
G7U G40U A48U G66U C68A	< 1e-05			< 1e-05	
G7A G60A	< 1e-05	< 1e-05			< 1e-05
G7A G60C	< 1e-05			< 1e-05	
G7A A36C G63A	< 1e-05				
G7C G9C U31C G40A	< 1e-05			< 1e-05	
G7C G9A	< 1e-05	< 1e-05		< 1e-05	< 1e-05
G7U G29C G59C	< 1e-05				
G7U C67U	< 1e-05	< 1e-05	< 1e-05		
G7A G9A A48G U49A A52C	< 1e-05		< 1e-05		< 1e-05
G7C A39U C61U	< 1e-05			< 1e-05	
A6U G37A	< 1e-05	< 1e-05			
G7U A15U A64C	< 1e-05			< 1e-05	
G7U A48C	< 1e-05			< 1e-05	< 1e-05
G7U A39U G41U	< 1e-05			< 1e-05	
G7U G13C C71U	< 1e-05			< 1e-05	
G7A C61A	< 1e-05				
G7C G13C	< 1e-05	< 1e-05	< 1e-05	< 1e-05	< 1e-05
A6U A15G U49C G51A	< 1e-05		< 1e-05		

— the supplement of paper PMC7125110
